Source: the supplement of paper PMC3334620
In all, about 33,000 sequences were measured (“E-score (-0.5 to 0.5)”: median about -0.054, highest 2% from about 0.35 on). The list shows a part of the results.

biological target: T1, Stb5 (UniProt P38699); test: PBM E-score (8-mer binding enrichment) (E-score (-0.5 to 0.5)); higher = stronger / more preferred TF binding; most listed sequences are background and not binding sites; conditions: protein concentration: 200 nM; construct: GST-full length
T1 sequence: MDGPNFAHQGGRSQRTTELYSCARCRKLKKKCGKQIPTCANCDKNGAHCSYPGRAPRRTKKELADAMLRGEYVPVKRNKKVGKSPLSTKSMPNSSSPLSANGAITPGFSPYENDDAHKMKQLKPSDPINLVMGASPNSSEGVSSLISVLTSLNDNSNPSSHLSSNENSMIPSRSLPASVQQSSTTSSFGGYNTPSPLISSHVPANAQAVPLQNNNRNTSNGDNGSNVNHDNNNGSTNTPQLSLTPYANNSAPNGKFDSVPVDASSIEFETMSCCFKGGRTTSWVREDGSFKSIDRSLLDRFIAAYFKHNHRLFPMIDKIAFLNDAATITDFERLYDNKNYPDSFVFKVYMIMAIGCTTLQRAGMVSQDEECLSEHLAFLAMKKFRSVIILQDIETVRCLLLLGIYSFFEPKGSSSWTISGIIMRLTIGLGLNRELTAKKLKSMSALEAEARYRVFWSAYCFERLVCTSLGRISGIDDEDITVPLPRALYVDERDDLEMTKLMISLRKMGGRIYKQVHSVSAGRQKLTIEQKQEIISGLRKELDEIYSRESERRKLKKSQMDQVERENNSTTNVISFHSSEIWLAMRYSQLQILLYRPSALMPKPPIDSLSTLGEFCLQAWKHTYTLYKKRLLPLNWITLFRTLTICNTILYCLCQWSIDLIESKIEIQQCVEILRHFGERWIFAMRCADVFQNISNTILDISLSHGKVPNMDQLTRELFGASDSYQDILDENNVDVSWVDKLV
Summary of the method: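 Bound GST-tagged yeast transcription factors, applied at about 100-200 nM to double-stranded universal all-10-mer Agilent arrays, were detected with fluorescent anti-GST. Scans were normalised with masliner. A modified Wilcoxon-Mann-Whitney statistic, the E-score, was assigned to each ungapped eight-base word pooled with its reverse complement by the Universal PBM Analysis Suite.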

Row | Sequence | PBM E-score
1 | ACCCGCCC | 0.276
2 | AATAATCC | 0.0985
3 | ACGTCTTG | -0.186
4 | CTATGGAC | 0.0664
5 | TATCCACA | -0.244
6 | ATTGCTGG | -0.0126
7 | AGTTTCCA | -0.0582
8 | GAAATTTC | -0.0694
9 | AGGACCGC | 0.397
10 | GAGTACTA | -0.223
11 | CGACTACA | -0.0923
12 | AGCTATAG | -0.101
13 | AGCAAAGA | -0.128
14 | GGGGGTAC | 0.23
15 | AAAGAGCT | -0.151
16 | AGTTGAAT | -0.138
17 | CAGCTCGC | -0.201
18 | ATGGACTG | -0.26
19 | CTGAAAGC | 0.0506
20 | AATTTCTC | 0.103
21 | TCCACCAA | -0.103
22 | AACCAAGA | -0.0513

Row | Sequence | PBM E-score
23 | AAGGGATA | -0.138
24 | CGACAACC | -0.118
25 | GCAAGCGA | -0.222
26 | CTCCACAA | -0.191
27 | CCGAACGG | 0.326
28 | GGGTAGGA | 0.0613
29 | CTAAAGGA | 0.0339
30 | ATTTTTTG | -0.163
31 | GCCCAAAA | -0.0155
32 | AGTGGCAA | -0.04
33 | AACCCTCC | -0.0222
34 | ATAAGTCG | 0.15
35 | AGGAGACT | -0.297
36 | AACGTTGG | -0.13
37 | CACGCTCA | -0.135
38 | ATGTGCGA | 0.0142
39 | CGTGCGCC | 0.166
40 | CACCAAGA | -0.103
41 | ATTGGTCC | 0.183
42 | ATGGCGGA | 0.301
43 | GCGGATAC | 0.241
44 | CTTCCATC | -0.0873

Row | Sequence | PBM E-score
45 | ATCAGTTG | -0.328
46 | CGACCAGA | 0.0557
47 | GATCTTGC | 0.118
48 | ATCGCACG | -0.164
49 | TCGGCAAA | 0.107
50 | GAGCGATC | -0.145
51 | AAGCGCGA | -0.0142
52 | GACATAGC | 0.00747
53 | ACCAAGGA | -0.164
54 | ATCGGGGC | 0.356
55 | ACTCTCCC | -0.105
56 | AATAGACT | -0.155
57 | ATAACCCC | 0.412
58 | CCGTGTAC | 0.0452
59 | CAGTACTA | -0.275
60 | ACTTGAGC | -0.28
61 | GATTTTAC | 0.121
62 | ACATGAGT | -0.171
63 | CCTATATC | 0.0282
64 | AATTCCTC | -0.074
65 | GTCGTGGA | -0.0244
66 | CGAAATAG | 0.193

Row | Sequence | PBM E-score
67 | CTCGAAGC | 0.0245
68 | AAGTAGAA | -0.157
69 | ACAAGACC | 0.116
70 | ACCAGGAG | -0.167
71 | CTCATAAG | -0.0661
72 | TCTGCGCA | -0.154
73 | AGAGGTAC | -0.205
74 | CATCCCCC | 0.0171
75 | CGTCCGAC | 0.281
76 | GACGAAGC | -0.121
77 | GGAACGAC | 0.0626
78 | CTAATAGA | -0.0219
79 | GCCGCGAA | 0.15
80 | ATATAGTA | -0.0192
81 | GACGGATA | 0.276
82 | ATCGCTTA | -0.192
83 | TGCACTAA | -0.16
84 | CGGGGGAG | -0.0116
85 | AGATTCGG | 0.183
86 | AGCACATC | -0.0901
